Measurements published in patent US20210115145A1, “COMBINATION THERAPY WITH TARGETED TGF-B INHIBITION FOR TREATMENT OF ADVANCED NON-SMALL CELL LUNG CANCER” (Merck Patent GmbH, priority 2018, published 2021).

Test system: Detroit 562 human pharyngeal carcinoma model
Assay: Detroit 562 xenograft model
Format: in vivo
Details: 25 μg, 76 μg or 228 μg; subcutaneous implantation; FIG. 5

B1: anti-PDL1(mut)/TGFβ Trap: Trap control: TGFβRII portion active, mutated anti-PD-L1; light chain SEQ ID NO: 6, heavy chain SEQ ID NO: 7 (antibody)
heavy: EVQLLESGGGLVQPGGSLRLSCAASGFTFSMYMMMWVRQAPGKGLEWVSSIYPSGGITFYADSVKGRFTISRDNSKNTLYLQMNSLRAEDTAIYYCARIKLGTVTTVDYWGQGTLVTVSSASTKGPSVFPLAPSSKSTSGGTAALGCLVKDYFPEPVTVSWNSGALTSGVHTFPAVLQSSGLYSLSSVVTVPSSSLGTQTYICNVNHKPSNTKVDKRV[here human IgG1 Fc without letters]GGGGSGGGGSGGGGSGGGGSGIPPHVQKSVNNDMIVTDNNGAVKFPQLCKFCDVRFSTCDNQKSCMSNCSITSICEKPQEVCVAVWRKNDENITLETVCHDPKLPYHDFILEDAASPKCIMKEKKKPGETFFMCSCSSDECNDNIIFSEEYNTSNPD
light: QSALTQPASVSGSPGQSITISCTGTSSDVGGYNYVSWYQQHPGKAPKLMIYEVSNRPSGVSNRFSGSKSGNTASLTISGLQAEDEADYYCSSYTSSSTYVFGTGTKVTVLGQPKANPTVTLFPPSSEELQANKATLVCLISDFYPGAVTVAWKADGSPVKAGVETTKPSKQSNNKYAASSYLSLTPEQWKSHRSYSCQVTHEGSTVEKTVAPTECS
tumor volume: dose-dependent reduction in tumor volume
